Source: PubChem BioAssay AID2451 (National Center for Advancing Translational Sciences (NCATS), 2010)
Where “and” joins values, the source holds several entries; their conditions need not be identical. Equal entries are not always repeated. In all, about 290,000 compounds went through this assay and about 2,100 (0.72%) were called active. The shares of active, inactive and inconclusive entries below differ from those in the screen. The call rests on the fitted dose curve; in most records, active means well fitted inhibition curve with a large enough effect; inconclusive means small, poorly fitted or top-dose-only effect, or effect the other way; inactive means flat fitted curve, though single readings scatter. Potencies beside an inconclusive call are fits to weak or partial responses and may not hold up.
Further: nearly all actives have a fitted effect of over 55% in size.
On the % scale 0 is the no-effect control and ±100 the full control effect; potency means the concentration at half of the fitted maximal effect; tags describe the fitted curve by direction and shape.

What follows are compounds tested against Fructose-bisphosphate aldolase (Giardia intestinalis (strain ATCC 50803 / WB clone C6)) (UniProt A8B2U2) (assay: qHTS Assay for Inhibitors of Fructose-1,6-bisphosphate Aldolase from Giardia Lamblia). Conditions: purified Giardia FBPA; activity, negative = inhibition: at 59.6 µM (top of the series) unless noted.
Sequence of UniProt A8B2U2 (A8B2U2 whole entry, looked up): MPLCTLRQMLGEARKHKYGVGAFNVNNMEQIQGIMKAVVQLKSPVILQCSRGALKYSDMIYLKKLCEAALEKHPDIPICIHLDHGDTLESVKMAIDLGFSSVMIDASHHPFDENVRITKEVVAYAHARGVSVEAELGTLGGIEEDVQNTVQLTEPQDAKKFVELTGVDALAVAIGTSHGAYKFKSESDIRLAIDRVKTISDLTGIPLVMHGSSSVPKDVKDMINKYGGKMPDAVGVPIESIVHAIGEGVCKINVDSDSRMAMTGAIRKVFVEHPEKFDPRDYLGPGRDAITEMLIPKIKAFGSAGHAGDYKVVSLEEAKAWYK
In short: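 Giardia FBPA (40 nM reagent) was preincubated 10 min at RT with compound (up to 57.5 uM final), then substrate plus GAPDH/TPI/NAD/arsenate coupling system with diaphorase/resazurin was added; resorufin fluorescence (525/598 nm) was read after 20 min.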
With Cc1ccc(OCC(=O)NNC(=O)c2cc3ccccc3o2)cc1C the Potency was “inactive”. COCO[C@H]([C@@H](C)C=C(Br)Br)[C@@H](C)COCc1ccc(OC)cc1 was tested, and the Potency was “inactive”. For Cc1ccc(NC(=O)CCc2ccc(C)o2)cc1, the Potency was “inactive”. With Cc1nc2[nH]c(=S)n(C)c(=O)c2nc1C the Potency was inconclusive: 19.9 µM [inhibitor, partial curve]. O=C(Cc1ccc(NC2=NC3CS(=O)(=O)CC3S2)cc1)NCCc1ccccc1 (centres undefined) was tested, and the Potency was inconclusive: 17.8 µM [inhibitor, single point]. With CC(C)C[C@H](N)C(=O)N1CCC(C(=O)N[C@H](C(=O)NCc2ccc(F)cc2)C(C)C)CC1 the Potency was inconclusive: 31.6 µM [inhibitor, single point]. For COc1ccc(Oc2nc(-c3ccccn3)nc3ccccc23)cc1, the Potency was “inactive”. In the case of C=CCNC(=O)c1cc(-c2ccc(Br)cc2)on1, the Potency is reported as “inactive”. CC(=O)Nc1cc(C(=O)N2CCC3(CC2)OCCO3)ccc1S(=O)(=O)c1ccc(C)cc1 was tested, and the Potency was “inactive”. In the case of COc1ccc(OC)c(CNc2ccc3c(c2)CCC3)c1, the Potency is reported as inconclusive: 28.2 µM [inhibitor, partial curve]. CCCCC1=CC2=CC(=O)C(C)(OC(=O)CC)C(=O)C2=CN1Cc1ccccc1 (centres undefined) was tested, and the Potency was inconclusive: 561 nM [inhibitor, full curve] and inconclusive: 6.29 µM [inhibitor, single point]. In the case of CCN(CC)S(=O)(=O)c1cccc(C(=O)N/N=C/c2cccc(O)c2O)c1, the Potency is reported as inconclusive: 3.54 µM [inhibitor, full curve]. In the case of Cc1ccc(C)c(NC(=O)CSc2n[nH]c(-c3ccccn3)n2)c1, the Potency is reported as inconclusive: 39.8 µM [inhibitor, single point]. For O=[N+]([O-])c1cc(Cc2ccccc2)cc(C=Nc2ccc(N3CCOCC3)cc2)c1O, the Potency was inconclusive: 4.46 µM [inhibitor, full curve, poor fit]. O=C(O)c1cc[c]([Hg][Cl])cc1 was tested, and the Potency was inconclusive: 19.9 µM [inhibitor, single point]. For Cc1nc(NC(C)C)c2cnn(CCc3ccccc3)c2n1, the Potency was “inactive”. In the case of O=C(c1csnn1)N1CCC2(CC1)CCN(c1ccccc1)CC2, the Potency is reported as “inactive”. COc1cccc(NC(=S)NNC(=O)Cn2nc(C(F)F)cc2C(F)F)c1 was tested, and the Potency was inconclusive: 15.8 µM [activator, partial curve]. CC(=O)c1ccc(NC(=O)c2ccc3snnc3c2)cc1 was tested, and the Potency was “inactive”. Cc1ccnc(N/C=C/C(=O)c2ccc(Br)cc2)c1 was tested, and the Potency was “inactive”. CC(=O)Nc1ccc(-c2nnc(SCC(=O)Nc3ccc4c(c3)oc3ccccc34)n2C)cc1 was tested, and the Potency was “inactive”. For COc1ccc(/C=C/C(=O)Nc2cccc(C(C)=O)c2)cc1, the Potency was “inactive”. O=C(CSc1nc2ccc(N3CCOCC3)cc2c(=O)n1CCc1ccccc1)NCC1CCCO1 (centres undefined) was tested, and the Potency was inconclusive: 8.89 µM [inhibitor, partial curve]. In the case of Cc1cccc(C(c2c(C)nn(-c3ccccc3)c2N)c2c(C)nn(-c3ccccc3)c2N)c1, the Potency is reported as “inactive”. OCCCNCc1ccc(N(c2ccccc2)c2ccccc2)cc1 was tested, and the Potency was inconclusive: 12.6 µM [inhibitor, partial curve]. In the case of O=C(CNC(=O)[C@@H]1Cc2ccccc2CN1)NC1CCCCC1, the Potency is reported as inconclusive: 25.1 µM [inhibitor, partial curve]. With N#Cc1c(N)sc(=S)c2c1CCN(Cc1ccccc1)C2 the Potency was active: 1.26 µM. For CNC(=S)N/N=C/c1ccco1, the Potency was inconclusive: 15.8 µM [inhibitor, single point]. COC(=O)c1ccc(N=Nc2c(C)[nH]n(-c3ccccc3)c2=O)cc1 was tested, and the Potency was active: 12.6 µM. With Cc1ccc(S(=O)(=O)Nc2nc(C)c(C)s2)cc1 the Potency was inconclusive: 31.6 µM [inhibitor, single point]. CNCC[C@H](Oc1ccccc1OC)c1ccccc1 was tested, and the Potency was inconclusive: 44.6 µM [inhibitor, single point]. With CN1CCN(CCOCCOc2ccc(Br)cc2Cl)CC1 the Potency was inconclusive: 12.6 µM [inhibitor, partial curve]. With Cc1cc(SCC(=O)N/N=C/c2ccc(O)c(O)c2O)c(C)cc1Br the Potency was active: 3.54 µM. For O=C1CC(N2CCN(c3ccccc3)CC2)C(=O)N1c1ccc(Cl)cc1 (centres undefined), the Potency was “inactive”. With COc1ccccc1CNS(=O)(=O)c1cccs1 the Potency was “inactive”. In the case of O=C(O)c1ccc(/C=N/NC(=S)NCCN2CCOCC2)cc1, the Potency is reported as inconclusive: 15.8 µM [inhibitor, single point]. O=S(=O)(c1cccc(-c2n[nH]c(=S)o2)c1)N1CCOCC1 was tested, and the Potency was inconclusive: 17.7 µM [inhibitor, single point]. CN1C(=O)/C(=C/C=C2\SCCN2C)N(C)C1=S was tested, and the Potency was “inactive”. In the case of Nc1c2c(nc3ccccc13)N(c1ccccc1)CC2, the Potency is reported as inconclusive: 19.9 µM [inhibitor, partial curve]. In the case of Cc1ccc(OCC(O)CN2CCN(CCO)CC2)c(C)c1 (centres undefined), the Potency is reported as inconclusive: 17.8 µM [inhibitor, partial curve]. CN(C)S(=O)(=O)c1cccc(NC(=O)CNC2CCCCC2)c1 was tested, and the Potency was inconclusive: 19.9 µM [inhibitor, partial curve]. For Cc1ccccc1C(=O)O/N=C1\CCS(=O)(=O)c2sccc21, the Potency was “inactive”. CN(C)c1ccc(N=Cc2ccco2)cc1 was tested, and the Potency was active: 2.81 µM. With CC1CCN(C2CCN(C(=O)c3ccccc3F)CC2)CC1 the Potency was inconclusive: 19.9 µM [inhibitor, partial curve]. In the case of Cn1c(N)c(-c2nc3cccnc3n2C)sc1=S, the Potency is reported as “inactive”. For Cc1ccsc1/C=N/Nc1nc(=O)[nH]nc1C, the Potency was inconclusive: 15.8 µM [inhibitor, partial curve]. For CCOC(=O)N1CCN(CC(O)c2ccccc2)CC1 (centres undefined), the Potency was inconclusive: 15.8 µM [inhibitor, partial curve]. For CCNC(=S)NNC(=O)c1cc(-c2cccc(C)c2)nc2ccccc12, the Potency was inconclusive: 22.3 µM [activator, single point]. With CCN1CCN(C(=O)Nc2ccccc2OC)CC1 the Potency was inconclusive: 39.7 µM [inhibitor, single point]. NCCC[C@@H](CC(=O)N[C@@H]1CCNC[C@H]1C(=O)N[C@H](CC(=O)N[C@@H](CCC(=O)O)CC(=O)O)Cc1ccccc1)NC(=O)C[C@H](CO)NC(=O)[C@@H]1CNCC[C@H]1N was tested, and the Potency was inconclusive: 15.8 µM [inhibitor, single point]. For CCc1ccc(C(=O)NC(=S)Nc2ccc3c(c2)OCCO3)cc1, the Potency was “inactive”. In the case of CO[C@H]1COC(=O)C/C=C\[C@H](C)COC(=O)[C@@H](C)NC(=O)C/C=C\[C@@H]1C, the activity, negative = inhibition is reported as inactive: -0.897% [at 12.9 µM]. In the case of COC(=O)N1C(c2ccccc2)=Cc2ccccc2C1C1(C(=O)OC)CCCC1=O (centres undefined), the Potency is reported as “inactive”. For CCN(CC)S(=O)(=O)c1ccc(C)c(NC(=O)CN2CCN(C)CC2)c1, the Potency was inconclusive: 15.8 µM [inhibitor, partial curve]. CNC(=S)N(CCc1c(C)[nH]c2ccc(C)cc12)Cc1cccs1 was tested, and the Potency was “inactive”. COc1ccc(-c2nnc(NC(=O)c3ccc(F)cc3)o2)cc1 was tested, and the Potency was inconclusive: 17.7 µM [activator, partial curve]. Cc1ccccc1NC(=O)c1ccc2c(O)c(S(=O)(=O)c3ccccc3)c(=O)[nH]c2c1 was tested, and the Potency was inconclusive: 39.8 µM [activator, single point]. In the case of COc1ccc(C2CC(c3c(O)n(CCc4ccccc4)c(=O)[nH]c3=O)=NN2)cc1OC (centres undefined), the Potency is reported as inconclusive: 15.8 µM [inhibitor, partial curve]. In the case of COCCNC(=S)Nc1ccc(N2CCCCC2)cc1, the Potency is reported as inconclusive: 6.29 µM [inhibitor, partial curve]. COc1ccc(C(=O)/C=C/c2ccccc2)cc1 was tested, and the Potency was “inactive”. CC(C)(C)OC(=O)N1CCC(c2c(C(=O)O)cnn2-c2ccc(Cl)cc2)CC1 was tested, and the Potency was inconclusive: 15.8 µM [activator, partial curve]. With COCCCn1c(Cc2csc(Nc3cccc(Cl)c3)n2)nnc1SCC(=O)OC the Potency was inconclusive: 14.1 µM [inhibitor, partial curve]. O=S(=O)(c1ccc2nc(-c3ccco3)c(-c3ccco3)nc2c1)N1CCOCC1 was tested, and the Potency was active: 2.51 µM. For O=[N+]([O-])c1c(NCCO)cc(N2CCC3(CC2)OCCO3)c2nonc12, the Potency was inconclusive: 1.12 µM [inhibitor, full curve]. Cc1ccc(S(=O)(=O)N(C)CC(=O)NCCCn2ccnc2)cc1 was tested, and the Potency was “inactive”. With COC(=O)Cn1ncc(N2C3CC(CC(C)(C)C3)C2C)c(Cl)c1=O (centres undefined) the Potency was “inactive”. In the case of COC1CCCCC1Nc1cc(C)ccc1C (centres undefined), the Potency is reported as inconclusive: 19.9 µM [inhibitor, partial curve]. With Cc1ccc(/C=N/NC(=O)c2ccc(Cn3cc([N+](=O)[O-])cn3)o2)cc1 the Potency was “inactive”. CC1Oc2ccccc2C=C1/C=C1/SC(N2CCOCC2)=NC1=O (centres undefined) was tested, and the Potency was inconclusive: 17.7 µM [inhibitor, partial curve]. With CCc1nnc(NC(=O)c2ccc(S(=O)(=O)N(C)c3ccccc3)cc2)o1 the Potency was inconclusive: 7.92 µM [inhibitor, full curve]. COc1cccc(/C=N/n2c(C)nc3ccccc32)c1OC was tested, and the Potency was “inactive”. For COC(=O)Nc1nnc(-c2ccncc2)s1, the Potency was inconclusive: 7.06 µM [activator, single point]. CCC(=O)N1CCN(c2ccc(NC(=O)c3cc4ccccc4o3)cc2Cl)CC1 was tested, and the Potency was inconclusive: 31.6 µM [inhibitor, single point]. For COC(=O)C1=C(C)N(CCCC(=O)O)C(=O)NC1c1cc2c(cc1[N+](=O)[O-])OCO2 (centres undefined), the Potency was inconclusive: 14.1 µM [inhibitor, partial curve].
